Results on eleven compounds are retold here after the supplement of paper PMC8512760.

Structures are written as SMILES. The list shows a part of the results. Single values are uncertain, as repeats are few or missing.

Common to all, as to test: cell viability relative to vehicle (% of vehicle); basal-like triple-negative breast cancer lines; higher = less cytotoxic
Holding throughout (settings): 10 µM; 72 h

Test [1] concerns HCC-1143.
The subject of test [2] is HCC-1187.
For test [3], the system named is MDA-468.
For test [4], the system named is SUM-149.
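Further: stably firefly luciferase-GFP labeled cells in 96-well plates, viability read as luciferase photon flux after d-luciferin addition, treated wells normalized to vehicle wells, single-dose high-throughput screen.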

For the compound `Cl.Cl.NCCc1cnc[nH]1` [Histamine 2HCl], the cell viability in test [1] turned out to be 84.8; in test [2], 96.2; in test [3] it was 74; in test [4], 109.
For `Nc1ccn(C2CCC(CO)O2)c(=O)n1` (centres undefined) [Zalcitabine] the same measures were 83.1, 82.2, 103 and 93.6.
With `NCCCCC(NC(CCc1ccccc1)C(=O)O)C(=O)N1CCCC1C(=O)O.O.O` (centres undefined) [Lisinopril dihydrate], the cell viability was determined as 81.1 in test [1], 109 in test [2], 120 in test [3] and 105 in test [4].
Regarding `Nc1nccs1` [Aminothiazole], the cell viability in test [1] was 109; in test [2], 82.6; in test [3] it was 86; in test [4], 77.4.
For `C=CCNC(N)=S` [Allylthiourea], the cell viability came out at 74.1 in test [1], 88 in test [2], 120 in test [3] and 134 in test [4].
For `COC(=O)CCc1ccc(OCC(O)CNC(C)C)cc1.Cl` (centres undefined) [Esmolol HCl] the same measures were 77.4, 101, 118 and 105.
The like results for `CS(=O)(=O)CCNCc1ccc(-c2ccc3ncnc(Nc4ccc(OCc5cccc(F)c5)c(Cl)c4)c3c2)o1` [Lapatinib] were, in that order, 95.6, 77.3, 80.1 and 115.
The like results for `CCC(CC)C(NC(C)=O)C1C(N=C(N)N)CC(C(=O)O)C1O` (centres undefined) [Peramivir] were, in that order, 95.4, 112, 92.3 and 130.
For the compound `COc1ccc(CNc2nc(N3CCCC3CO)ncc2C(=O)NCc2ncccn2)cc1Cl` (centres undefined) [Avanafil], the cell viability in test [1] is 135; in test [2], 74.9; in test [3] it was 114; in test [4], 121.
For `CC(OC1OCCN(Cc2nc(=O)[nH][nH]2)C1c1ccc(F)cc1)c1cc(C(F)(F)F)cc(C(F)(F)F)c1` (centres undefined) [Aprepitant] the same measures were 81.2, 77.5, 77.1 and 123.
For `COCCCOc1ccnc(C[S+]([O-])c2nc3ccccc3[nH]2)c1C` (centres undefined) [Rabeprazole sodium] the same measures were 142, 103, 158 and 178.
